Measured values: PubChem BioAssay (NCI)
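Tested at 5 concentrations; 48 h exposure; 96-well plates; endpoints linearly interpolated, else capped at highest concentration. TGI marks complete inhibition of growth.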

System: NCI-H322M lung
Test: NCI tumour cell line growth inhibition, 48 h

Row | SMILES | TGI [µM]
1 | CC(O)c1c2c(cc3c1CC1(C3)Cc3cc4c(c(C(C)O)c3C1)CCC4)CCC2 (configuration not stated) | 59.1
2 | O=C(O)CN(c1ccc(Cl)cc1)S(=O)(=O)c1ccccc1 | > 100
